Experimental data taken from PubChem BioAssay AID686979 (National Center for Advancing Translational Sciences (NCATS), 2013).
Where “and” joins values, the source holds several entries; their conditions need not be identical. Identical values can stand only once. About 50,000 (12%) of roughly 420,000 compounds were called active. This list was built around the results that the source calls inconclusive (neither active nor inactive); the mix of calls is not that of the screen. Calls follow the shape of the dose curve; as a rule, active = well fitted inhibition curve with a large enough effect; inconclusive = small, poorly fitted or top-dose-only effect; inactive = flat fitted curve, though single readings scatter. Potencies beside an inconclusive call are fits to weak or partial responses and may not hold up.

Test: qHTS for Inhibitors of human tyrosyl-DNA phosphodiesterase 1 (TDP1): qHTS in cells in presence of CPT; also: nearly all actives have a fitted effect of over 55% in size
Settings: chicken DT40 Tdp1-/-;hTDP1 cells + 20 nM CPT, ATP luminescence, 48 h; activity change, negative = growth inhibition: at 46.2 µM (top of the series) unless noted
Summary of the method: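 Chicken DT40 Tdp1-/- cells stably complemented with human TDP1 were seeded at 400 cells/well in medium containing 20 nM camptothecin, exposed to pin-transferred compounds, and grown at 37 °C for at least 48 hr. Viability was read as ATP luminescence.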
% is scaled to controls: 0 for no effect and ±100 for the full control effect; potency is read from the fitted curve at half-maximal effect; tags tell the direction and shape of the fitted curve.

Row | SMILES | activity change, negative = growth inhibition | Potency
1 | Cc1onc(-c2ccccc2)c1C(=O)Nc1ccc(Cl)c(S(=O)(=O)N2CCOCC2)c1 | inactive: -28.5% | 
2 | CCC(CC)C(=O)Nc1cc(C(=O)OC)ccc1C(=O)OC |  | inconclusive: 29.1 µM [inhibitor, single point]
3 | O=C(CN1CCc2ccccc21)NC(=O)NCc1ccccc1 |  | inconclusive: 29.1 µM [inhibitor, single point]
4 | Cc1ccc2nc(-c3ccc(NC(=O)C4CCCO4)cc3)[nH]c2c1 (stereo not drawn) |  | inconclusive: 29.1 µM [inhibitor, single point]
5 | CC(C)c1ccc(NC(=O)CN2C=NS(=O)(=O)c3ccccc32)cc1 | inactive: -0.437% | 
6 | Cc1cc(C(F)F)n2nc(C(=O)Nc3sc4c(c3C(N)=O)CCC4)nc2n1 |  | inconclusive: 16.4 µM [inhibitor, single point]
7 | CCCc1cc(=O)oc2c3c(cc(OCC(=O)NCCCn4ccnc4)c12)OC(C)(C)CC3 |  | active: 16.4 µM
8 | COc1cccc2cc(/C(C)=N/Nc3nc(-c4cc(C)ccc4C)cs3)c(=O)oc12 | inactive: -3.08% | 
9 | COc1ccc(OC)c(C(=O)C2COC(=O)C2)c1 (stereo not drawn) |  | inconclusive: 29.1 µM [inhibitor, single point]
10 | COc1ccc(C2Nc3ccccc3C(=O)N2Cc2ccccc2)cc1COc1ccc([N+](=O)[O-])cc1 (stereo not drawn) |  | inconclusive: 5.01 µM [inhibitor, full curve]
11 | CCS(=O)(=O)N1Cc2ccccc2CC1C(=O)N1CCN(c2cccc(C)c2C)CC1 (stereo not drawn) |  | inconclusive: 29.1 µM [inhibitor, single point]
12 | O=C1CC(c2ccc(F)cc2)Cc2nc(N3CCOCC3)ncc21 (stereo not drawn) | inactive: -20.9% | 
13 | O=C(NCCOc1ccccc1)C(=O)c1c[nH]c2ccccc12 | inactive: -5.82% | 
14 | OC(c1ccccc1)c1ncc(-c2cccc(OCc3ccccc3)c2)[nH]1 (stereo not drawn) |  | inconclusive: 14.6 µM [inhibitor, partial curve]
15 | COC(=O)c1cc2oc(C)cc2n1Cc1ccc(C)cc1 | inactive: -23.3% | 
16 | CCCN(CCC)C(=O)c1oc2ccccc2c1NC(=O)Cc1cccc(OC)c1 |  | inconclusive: 23.1 µM [inhibitor, single point]
17 | CCOc1cc(NC(=O)c2ccccn2)c(OCC)cc1NC(=O)c1cccc(C)c1 |  | active: 4.11 µM
18 | COc1ccc([C@H]2CC(=O)C=C(c3ccc(OC(F)(F)F)cc3)C2)cc1 |  | inconclusive: 23.1 µM [inhibitor, single point]
19 | Cc1ccccc1CNC(=O)Nc1ccc(Cl)cc1 |  | inconclusive: 1.84 µM [inhibitor, partial curve, poor fit]
20 | NC1=NC(=O)C(CC(=O)c2ccc(Cl)cc2)S1 (stereo not drawn) | inactive: -18.4% | 
21 | CN(C)c1ccc(CC2CCc3ccccc32)cc1 (stereo not drawn) |  | inconclusive: 14.1 µM [inhibitor, single point]
22 | O=C(NC(=O)c1ccc(F)cc1)Nc1nc(-c2cccs2)cc(C(F)(F)F)n1 | inconclusive: -35% [inhibitor] | 
23 | Cc1ccc(S(=O)(=O)N2CCN(C(=O)COC(=O)c3ccc(C(C)(C)C)cc3)CC2)c(C)c1 |  | inconclusive: 25.9 µM [inhibitor, single point]

Row | SMILES | activity change, negative = growth inhibition | Potency
24 | CCN(CC)S(=O)(=O)c1ccc2c(c1)N(CC(=O)Nc1c(C)cc(C)cc1C)C(=O)CS2 |  | inconclusive: 18.4 µM [inhibitor, single point]
25 | O=C(CN1CCCSc2ccccc21)N1CCN(S(=O)(=O)c2cccc(F)c2)CC1 |  | active: 16.4 µM
26 | Cn1c(-c2ccc3nc(N)sc3c2)nc2cc(N)ccc21 |  | inconclusive: 18.4 µM [inhibitor, single point]
27 | CC(=O)C1=C(O)C(=O)N(c2ccc(Br)cn2)C1c1ccc(Br)cc1 (stereo not drawn) |  | inconclusive: 29.1 µM [inhibitor, single point]
28 | COc1ccc(C(Nc2ccccn2)c2c(NC(=O)c3ccco3)sc(C)c2C)cc1 (stereo not drawn) |  | inconclusive: 29.1 µM [inhibitor, single point]
29 | C[C@H](CO)N1C[C@H](C)[C@@H](CN(C)S(=O)(=O)c2ccccc2)Oc2c(NC(=O)Nc3ccc(C(F)(F)F)cc3)cccc2C1=O |  | inconclusive: 23.1 µM [inhibitor, single point]
30 | N#C/C(=C\c1c(Oc2ccc(F)cc2)nc2ccccn2c1=O)c1nc2ccccc2s1 |  | inconclusive: 16.4 µM [inhibitor, single point]
31 | CCOC(=O)COc1ccc(/C=C2/SC(=Nc3ccccc3)N(Cc3cccnc3)C2=O)cc1OC |  | inconclusive: 29.1 µM [inhibitor, single point]
32 | CN(CCOc1ccc(-c2ccn(S(=O)(=O)c3cccc4ccccc34)n2)cc1)c1ccccn1 | inactive: -21% | 
33 | COc1ccc(-c2c(-c3ccc4c(c3)OCO4)c3ccccc3n2C)cc1 |  | inconclusive: 16.4 µM [inhibitor, single point]
34 | CN(C)c1ccc(/C=N/NC(=O)c2cc(-c3ccc4c(c3)OCO4)n[nH]2)cc1 |  | active: 18.4 µM
35 | CCOc1ccc(S(=O)(=O)NCCC(=O)N2CCN(C(C)=O)CC2)cc1 | inactive: -7.1% | 
36 | Cc1ccc(Cc2c(-c3ccccc3)nc3cc(C)ccn23)cc1 |  | active: 16.4 µM
37 | Cc1ccccc1C(C(=O)NC1CCCCC1)N(C(=O)CNC(=O)c1ccco1)c1cccnc1 (stereo not drawn) |  | inconclusive: 29.1 µM [inhibitor, single point]
38 | Cc1ccc(C)c(SCC(=O)OCC(=O)NCCNC(=O)COC(=O)CSc2cc(C)ccc2C)c1 | inactive: -28.5% | 
39 | COc1ccc(C(=O)CCNc2ccc(C)c(Cl)c2)cc1 |  | inconclusive: 29.1 µM [inhibitor, single point]
40 | CCc1cccc(CC)c1NC(=O)C1CSC2(C)CCC(=O)N12 (stereo not drawn) | inactive: -4.31% | 
41 | COc1ccccc1OCC(=O)O |  | inactive
42 | O=C(NNc1c2ccccc2nc2ccccc12)c1ccc(O)cc1O |  | inconclusive: 20.6 µM [inhibitor, single point]
43 | COc1cc2cc(C)c(SCC(=O)N3CCN(C(=O)c4ccco4)CC3)nc2cc1OC |  | inconclusive: 23.1 µM [inhibitor, partial curve]
44 | O=c1c2c3c(sc2n(CCN2CCCC2)c(=O)n1Cc1ccco1)CCCCC3 |  | active: 8.2 µM
45 | O=C(Nc1ccccc1N1CCCCC1)C1CCN(S(=O)(=O)c2ccccc2C(F)(F)F)CC1 |  | inconclusive: 29.1 µM [inhibitor, single point]
46 | COc1ccc(C(=O)C2CCCN(C(=O)c3cccc(Cn4cccn4)c3)C2)cc1F (stereo not drawn) |  | inconclusive: 23.1 µM [inhibitor, single point]

Row | SMILES | activity change, negative = growth inhibition | Potency
47 | COc1ccc(CCn2c(=N)c(C(=O)NCC3CCCO3)cc3c(=O)n4ccccc4nc32)cc1OC (stereo not drawn) |  | active: 7.31 µM
48 | O=C(N[C@@H]1CCC(=O)N(CC[C@H](Sc2ccccc2)c2ccccc2)CC1)OCc1ccccc1 |  | inconclusive: 20 µM [inhibitor, single point] and inconclusive: 29.1 µM [inhibitor, single point]
49 | CC(C)CNc1ncnc2c1cnn2Cc1ccc(Cl)cc1 |  | inconclusive: 29.1 µM [inhibitor, single point]
50 | CCc1nnc(NC(=O)CSc2nnc(C(C)NC(=O)c3ccccc3F)n2C)s1 (stereo not drawn) | inactive: -9.87% | 
51 | Cc1ccc(-c2cc(C(F)F)n3ncc(C(=O)Nc4c(C)nn(Cc5c(Cl)cccc5Cl)c4C)c3n2)cc1 |  | active: 10.3 µM
52 | Cc1nn(C)cc1CN(C)C(=O)c1nn2c(c1Br)NC(c1cccs1)CC2C(F)(F)F (stereo not drawn) |  | inconclusive: 29.1 µM [inhibitor, single point]
53 | COCCN(Cc1ccc(OC)cc1)c1c(C)nc2ccc(C(=O)NCCc3c[nH]c4ccccc34)cn12 |  | inconclusive: 20.6 µM [inhibitor, single point]
54 | CCc1ccc(CNC(=O)C2CCN(C(=O)c3ccc(-n4ccc5ccccc54)s3)CC2)cc1 |  | inconclusive: 8.2 µM [inhibitor, partial curve]
55 | Oc1ccc(CNc2ccccc2O)cc1 |  | active: 25.9 µM
56 | CCOc1ccc(CN(CC)C(=O)Cc2c[nH]c3ccccc23)cc1OC |  | inconclusive: 29.1 µM [inhibitor, single point]
57 | COc1cccc(/C=N/NC(=O)c2nnn(-c3nonc3N)c2C(C)C)c1 |  | inconclusive: 29.1 µM [inhibitor, single point]
58 | O=C(c1cccc(Cl)c1)N1CCN(Cc2c[nH]c3ccccc23)CC1 | inactive: -26.7% | 
59 | C=CCN1C(=O)C(CC(=O)NCC)SC1=Nc1cc(Cl)ccc1Cl (stereo not drawn) |  | inconclusive: 29.1 µM [inhibitor, single point]
60 | O=C(Nc1nnc(C2=COCCO2)o1)c1ccc(S(=O)(=O)N2CCCCC2)cc1 |  | inconclusive: 29.1 µM [inhibitor, single point]
61 | COCC(=O)O[C@]1(CCN(C)CCCc2nc3ccccc3[nH]2)CCc2cc(F)ccc2[C@@H]1C(C)C |  | active: 1.5 µM and active: 20.6 µM
62 | COc1ccc(CN2C(=O)c3cccnc3C2=O)cc1S(=O)(=O)N1CC(C)CC(C)C1 (stereo not drawn) |  | inconclusive: 9.2 µM [inhibitor, partial curve, poor fit]
63 | Brc1ccc(-c2ccc(CNCc3ccccn3)o2)cc1 |  | inconclusive: 29.1 µM [inhibitor, single point]
64 | O=C(OCc1ccccc1)N1CCC2CC1c1cc(N3CCOCC3)ccc12 (stereo not drawn) |  | inconclusive: 29.1 µM [inhibitor, single point]
65 | Cc1oc(-c2cccc(Br)c2)nc1CSc1nc2ncccc2[nH]1 |  | inconclusive: 25.9 µM [inhibitor, single point]
66 | Cc1nn(CC(=O)Nc2ccc(N3CCOCC3)cc2)c(C)c1Cl | inactive: -3.02% | 
67 | CC(c1ccccc1)N1C(=O)c2ccccc2C1O (stereo not drawn) | inactive: -0.779% | 
68 | O=C(Cc1ccc(Cl)cc1)NCC(=O)N1CCN(c2ccccc2)CC1 |  | active: 29.1 µM
